# Laboratory results reported in publication PMC4336329 (PLoS ONE, 2015).
# The whole screen tested about 310,000 compounds, of which about 14,000 (4.5%) showed an effect of 50% or more. Effects have a minus sign here. Some of the results follow.
# Target: human ether-à-go-go-related gene (hERG) potassium channel (human, UniProt Q12809)
# Assay: primary screen, population patch clamp on CHO cells stably expressing hERG
# 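Further: peak tail current of the secondary pulse compared with the same well before compound.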
# Sequence of human ether-à-go-go-related gene (hERG) potassium channel (Q12809 whole entry, looked up): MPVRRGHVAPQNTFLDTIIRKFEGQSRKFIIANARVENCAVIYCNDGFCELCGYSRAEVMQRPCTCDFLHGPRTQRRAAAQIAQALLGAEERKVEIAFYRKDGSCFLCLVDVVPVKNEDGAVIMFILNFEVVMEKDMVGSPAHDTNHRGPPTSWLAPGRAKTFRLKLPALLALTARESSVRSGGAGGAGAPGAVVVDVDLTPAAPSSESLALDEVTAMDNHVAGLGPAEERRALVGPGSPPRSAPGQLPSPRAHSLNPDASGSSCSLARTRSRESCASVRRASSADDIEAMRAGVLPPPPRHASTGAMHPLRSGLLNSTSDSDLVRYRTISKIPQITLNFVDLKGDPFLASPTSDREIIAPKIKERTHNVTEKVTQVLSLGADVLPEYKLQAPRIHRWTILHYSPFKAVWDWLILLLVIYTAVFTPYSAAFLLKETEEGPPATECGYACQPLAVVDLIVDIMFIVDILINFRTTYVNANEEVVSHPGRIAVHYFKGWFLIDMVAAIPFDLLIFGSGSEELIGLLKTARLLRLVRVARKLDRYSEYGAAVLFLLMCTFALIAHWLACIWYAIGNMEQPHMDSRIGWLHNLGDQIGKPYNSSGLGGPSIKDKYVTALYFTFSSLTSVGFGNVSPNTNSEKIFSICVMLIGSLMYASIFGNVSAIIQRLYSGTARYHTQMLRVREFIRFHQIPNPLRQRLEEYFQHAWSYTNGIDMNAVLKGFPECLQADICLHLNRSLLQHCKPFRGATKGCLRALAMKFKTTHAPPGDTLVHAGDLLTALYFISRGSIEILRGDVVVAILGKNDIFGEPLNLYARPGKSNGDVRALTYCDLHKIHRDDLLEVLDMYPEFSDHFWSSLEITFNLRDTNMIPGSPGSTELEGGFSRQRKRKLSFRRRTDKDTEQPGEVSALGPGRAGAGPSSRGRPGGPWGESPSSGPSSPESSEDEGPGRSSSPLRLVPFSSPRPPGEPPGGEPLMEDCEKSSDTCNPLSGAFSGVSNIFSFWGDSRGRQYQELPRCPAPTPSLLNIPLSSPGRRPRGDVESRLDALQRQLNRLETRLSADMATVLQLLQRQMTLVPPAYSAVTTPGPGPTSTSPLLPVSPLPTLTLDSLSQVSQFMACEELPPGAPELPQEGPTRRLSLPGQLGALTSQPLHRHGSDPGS
row,SMILES,"hERG current change (%, negative = inhibition) at 10uM [%]"
1,CCc1cc(C(=O)NCC(c2cccs2)N2CCOCC2)sc1C (centres unmarked),-14.1
2,O=C(Nc1ccc(NC(=O)C2CC2)nc1)c1ccccc1F,5.75
3,Cc1ccc(-c2ccc(CCC(=O)O)n2C(C)C)cc1,9.59
4,COc1ccc(-n2nc(C(=O)NCC(=O)N3CCC4(CC3)OCCO4)c3ccccc3c2=O)c(OC)c1,2.17
5,COc1cccc(COC(=O)CCNC(=O)c2ccc(Cl)cc2)c1OC,-1.56
6,COc1ccc(C(=O)N/C(=C\c2ccco2)C(=O)NC2CCS(=O)(=O)C2)cc1 (centres unmarked),18.4
7,O=C(Nc1cccc(-c2csc(Nc3ccccc3)n2)c1)c1ccccc1,2.4
8,Cc1ccc(-c2cc3ccccc3nc2N2CCCC2)cc1,9.8
9,COc1ccccc1NC(=O)COC(=O)c1ccccn1,12
10,CN1CCN(S(=O)(=O)c2ccc(N3CCN(S(=O)(=O)c4cccs4)CC3)nc2)CC1,20.8
11,COC(=O)C1=C(c2ccc(F)cc2F)C[C@@H]2CC[C@H]1N2C(=O)NC1Cc2ccccc2C1,-16.9
12,CC(C)N=C1NN=C(c2cccs2)C(CC(=O)O)S1 (centres unmarked),-0.535
13,O=C1CCCN1CCC1CCN(C2CC(=O)N(c3ccc(Cl)cc3)C2=O)CC1 (centres unmarked),-14.4
14,Cc1ccc(CSCC(=O)N(C)CC(=O)Nc2ccc(Br)cc2C)cc1,-22.9
15,Nc1nc(SCc2c(F)cccc2Cl)[nH]c(=O)c1-c1ccccc1,4.43
16,COC(=O)CSc1nc2cc3c(cc2cc1C#N)OCO3,29.5
17,O=C(NCCCN1CCCC1=O)c1cc(S(=O)(=O)N2CCOCC2)ccc1Cl,13.9
18,Cc1cc(OCC(=O)NC2CCN(Cc3ccccc3)CC2)c2c(C)c(C)c(=O)oc2c1,-22.4
19,CCOCCCN(C(=O)c1snc(C(N)=O)c1N)C(C(=O)NC(C)(C)C)c1ccc(Cl)cc1 (centres unmarked),-33.1
20,CC(C)c1ccc(/C=N/N2CCCCC2)cc1.O=C(O)C(=O)O,-84.3
21,Cn1cc(/C=C/C(=O)N2CCCC(C(=O)c3cccc4ccccc34)C2)cn1 (centres unmarked),-8.09
22,O=C1c2ccccc2NC(c2ccccc2F)N1NS(=O)(=O)c1ccccc1 (centres unmarked),19.2

row,SMILES,"hERG current change (%, negative = inhibition) at 10uM [%]"
1,O=C(NNC(=O)C(O)(c1ccccc1)c1ccccc1)C1CC1,20.3
2,Cl.Nc1ccc(-c2nc3c(ccc4ccccc43)[nH]2)cc1,12.7
3,Cc1nc(-c2ccccc2)sc1-c1ccn[nH]1,25
4,Cc1ccc(-n2nc3c(=O)n(CC(=O)NCc4ccccc4Cl)nc(C)c3c2C)cc1,13.8
5,COc1ccc(N2CCN(C(=O)C3CCCN(S(=O)(=O)c4ccc(C)cc4)C3)CC2)cc1 (centres unmarked),-53.4
6,COC(=O)/C=C1\SC(=NC(=O)c2ccc(OC)cc2)NC1=O,-1.49
7,Cc1ccc(/C=C/C(=O)N2CCN(S(=O)(=O)c3c(C)c(C)cc(C)c3C)CC2)o1,-28.3
8,COc1ccc(Br)cc1/C=N/Nc1ccc(Cl)c(C(=O)O)c1,-1.59
9,N#CN/C(=N\S(=O)(=O)c1ccccc1)c1ccccc1,21
10,CC(=O)Nc1ccc(S(=O)(=O)NCc2ccc(C(=O)N3CCOCC3)cc2)cc1,8.95
11,COc1ccc(-c2nnc(NC(=O)c3cccs3)s2)c(OC)c1,19.4
12,Cc1cc(C)c(S(=O)(=O)N2CCCC2=O)cc1N(C)S(C)(=O)=O,14.9
13,Cc1ccc(S(=O)(=O)N2CCOC2CNC(=O)C(=O)NCc2ccncc2)cc1 (centres unmarked),0.198
14,CCOC(=O)C1=C(C)N(C)C(=O)NC1c1ccccc1OC (centres unmarked),-12.1
15,CSCC[C@H](NC(=O)C1CCN(S(=O)(=O)c2ccc(C)cc2)CC1)C(=O)NC1CCS(=O)(=O)C1 (some centres unmarked),6.54
16,Cc1nc(CC(=O)c2ccc(O)c(C)c2O)cs1,-7.55
17,CCCCOC(=O)c1nnc(-c2ccccc2)o1,4.69
18,CCCCn1c(N)c(N(CCOC)C(=O)C2CCN(S(=O)(=O)c3ccc(C)cc3C)CC2)c(=O)[nH]c1=O,5.28
19,CC(=O)OC1COC(N2CCc3ccccc32)C(OC(C)=O)C1OC(C)=O (centres unmarked),18.5
20,COc1ccccc1/C=C/C(=O)Nc1ccc(N2CCOCC2)cc1,11.3
21,CCN(C(=O)COC(=O)CNC(=O)c1sc2ccccc2c1Cl)C1CCCCC1,8.33
22,CC(C)C[C@H](CO)Nc1nc(Nc2cccc(Cl)c2)c2ncn(C(C)C)c2n1,3.24

row,SMILES,"hERG current change (%, negative = inhibition) at 10uM [%]"
1,Cc1occc1C(=O)NC1CCCc2ccccc21 (centres unmarked),-4.3
2,O=C(Nc1ccc2c(c1)OCCO2)c1ccc(CN2CCOCC2)cc1,7.21
3,CCc1nnc(NC(=O)CSc2nccn2-c2ccccc2)s1,-10.5
4,CN1CCN(c2ccc([N+](=O)[O-])cc2Cl)CC1,-52.2
5,O=C(CCS(=O)(=O)c1ccc(Br)cc1)NCc1ccco1,-0.399
6,COc1ccc(N2CCN(Cc3nc4ccccc4n3C)CC2)cc1,-18.2
7,Cc1ccc2sc(NNC(=O)C3COc4ccccc4O3)nc2c1C (centres unmarked),7.62
8,Cc1nnc2sc(SCC(=O)N3CCC(C)CC3)nn2c1=O,0.929
9,COc1cc2c(cc1OC)-c1cc(Nc3ccccc3C)nc(=O)n1CC2,-7.32
10,Cc1cc(C(C)(C)C)oc1C(=O)N(CC(=O)NC1CCCC1)Cc1ccc(F)cc1,12.4
11,CCN1CCN(c2ncnc3c2c(-c2ccccc2)cn3-c2ccc(F)cc2)CC1,-74.5
12,CC1(C(=O)OCC(=O)NC(=O)NCc2ccccc2)CC1(Cl)Cl (centres unmarked),4.66
13,CCN1C(=O)C(CC(=O)NC)N(NC(=O)c2ccccc2)C1=S (centres unmarked),-2.64
14,CCOc1cc(N2CCOCC2)c(OCC)cc1NC(=O)C(NC(=O)c1ccco1)C(C)C (centres unmarked),-9.63
15,O=C(COc1ccc(-c2nnc(N3CCCCC3)c3ccccc23)cc1)N1CCCCC1,-32.3
16,COc1ccc(C(Nc2ccc(S(=O)(=O)NCC3CCCO3)cc2)C(=O)NC(C)(C)C)cc1OC (centres unmarked),11.5
17,CCN(C(=O)COC(=O)c1c(NC(C)=O)sc(C)c1C)C1CCS(=O)(=O)C1 (centres unmarked),-40.2
18,CCCCn1c(N)c(N(CCOC)C(=O)CSc2n[nH]c(-c3ccc(OC)cc3)n2)c(=O)[nH]c1=O,11.7
19,Cc1cccc(C)c1N=Cc1c(O)n(-c2nccs2)c(=O)c2ccccc12,-2.54
20,COc1ccc(S(=O)(=O)NCCSCc2ccco2)cc1Cl,-3.59
21,Cn1c(=O)n(C)c2cc(NC(=O)CSc3nnc(-c4ccccc4O)n3-c3ccccc3)ccc21,1.62
22,CCOC(=O)C1(Cc2ccccc2C(F)(F)F)CCN(C2CCCC2)CC1,-43.5

row,SMILES,"hERG current change (%, negative = inhibition) at 10uM [%]"
1,Nc1nc(SCC(=O)NCc2ccccc2Cl)[nH]c(=O)c1NC(=O)c1ccccc1F,10.8
2,Cc1c(NC(=O)CCCCCN2C(=O)C3C4C=CC(C4)C3C2=O)c(=O)n(-c2ccccc2)n1C (centres unmarked),15.9
3,O=C(CN(CCc1ccccc1)Cc1ccccc1)Oc1ccccc1P(=O)(O)O,6.14
4,O=C1c2ccccc2CN1CCNC(=S)NC1CCCCC1,-7.82
5,Cn1c(=O)c2c(nc3n2CC(O)CN3c2ccccc2)n(C)c1=O (centres unmarked),11.7
6,CC1CN(C(=O)CCC(=O)NCCCN2CCC(Cc3ccccc3)CC2)c2cc(Cl)ccc2O1 (centres unmarked),-72.7
7,CCOC(=O)Cn1cnc2c(cnn2-c2ccc(Cl)cc2)c1=O,-4.32
8,O=C(NC1CCCCC1)c1n[nH]c2c1CC(c1ccccc1)CC2 (centres unmarked),13.9
9,CCOC(=O)C1CCN(c2ncnc3c2oc2ccc(Cl)cc23)CC1,-23.8
10,CCCOc1ccc(CSC(=N)N)cc1C(=O)OC.Cl,-0.181
11,COc1ccccc1C(=O)COC(=O)Cn1[nH]c(=O)c2ccccc2c1=O,6.78
12,CCOC(=O)c1[nH]c2ccccc2c1N=CN(CC)CC,-60.8
13,CCNc1nc(NCC)n2c(SCC(=O)c3ccccc3F)nnc2n1,2.77
14,CCOc1cc2[nH]c(=S)n(Cc3ccc(C(=O)O)cc3)c(=O)c2cc1OCC,13.2
15,OCC[C@@H]1C[C@@H](O)[C@H](O)[C@@]2(OCc3ccccc32)O1,20.8
16,CCOc1ccc(OCCOCCOc2ccccc2Cl)cc1,-0.437
17,COc1cccc(CNC(=O)CN(C)S(=O)(=O)c2ccc3c(c2)c(=O)n(C)c(=O)n3C)c1,9.12
18,Cc1ccc2c(c1)C1CN(C)CCC1N2Sc1ccccc1[N+](=O)[O-] (centres unmarked),-62.8
19,CCOC(=O)C1CCN(Cc2nnc(-c3ccccc3C)o2)CC1.Cl,15.2
20,CCOC(=O)c1c(-c2ccccc2)csc1/N=C/C1C(=O)CCCC1=O,-8.46
